# PubChem BioAssay AID493208 (National Center for Advancing Translational Sciences (NCATS), 2011)
# Out of some 44,000 compounds screened, about 340 (0.77%) were called active. The inconclusive results got no clear call from the source; some entries with a clear call stand among them for comparison. Calls come from the whole dose curve; as a rule, active = well fitted inhibition curve with a large enough effect; inconclusive = small, poorly fitted or top-dose-only effect; inactive = flat fitted curve, though single readings scatter. No potency is given beside an inconclusive call; the fits are too rough.
# Test: Acumen qHTS Assay for Inhibitors of the mTORC1 Signaling Pathway in MEF (Tsc2-/-, p53-/-) Cells: Sytravon; note: nearly all actives have a fitted effect of over 50% in size;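 for activity change, negative = inhibition: plate controls were DMSO for no effect and rapamycin for full effect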
# Conditions: phospho-rpS6 immunofluorescence/PI, 24 h; series mostly up to 38.3 µM; activity change, negative = inhibition: at the top concentration
# In short: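 Plate MEFs (Tsc2-/-, p53-/-, empty vector) in DMEM/10% FBS; after 24 h add compound, incubate 24 h at 37 degree Celsius; fix in PFA/TX-100, block, stain phospho-rpS6 and 10 uM PI; scan at 488 nm; report % positive cells.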
# Potency is the fitted concentration of half-maximal effect; tags give direction and shape of the fitted curve.
SMILES,Potency,"activity change, negative = inhibition"
CCOc1ccccc1CNC(=O)CCc1cn(Cc2ccc(Cl)cc2)c2ccccc12,"inconclusive [falling, partial curve, poor fit]",–
COc1ccc(CNC(=O)c2ccc3[nH]c(C)c(C)c3c2)c(OC)c1,–,inactive: -8.95%
N#C/C(=C\c1ccc(-c2ccc(F)cc2F)o1)c1nc2ccccc2[nH]1,active: 13.1 µM,–
COc1ccc(C(=O)Nc2ccc(OCc3cc(=O)n4ccccc4n3)cc2)cc1,"inconclusive [falling, partial curve, poor fit]",–
Nc1nc(SCC(=O)Nc2cccc(C(F)(F)F)c2)n[nH]1,"inconclusive [falling, single point]",–
COc1ccc(-c2nc(CCNC(=O)c3cccs3)cs2)cc1,"inconclusive [falling, partial curve, poor fit]",–
CCOC(=O)c1ccc(NC(=O)CC2Sc3ccc(C(F)(F)F)cc3NC2=O)cc1 (stereo not drawn),"inconclusive [falling, single point]",–
Cc1nn(C)c2c1c(-c1ccccc1)cc(=O)n2Cc1ccccc1Cl,"inconclusive [falling, partial curve, poor fit]",–
CCCCOc1ccc(Cn2c(=O)oc3ccc(C)cc32)cc1,–,inactive: -1.39%
Cc1cccc(-c2nnn3c2nc(NCCc2ccc(S(N)(=O)=O)cc2)c2ccccc23)c1,–,inactive: -1.49%
COc1ccc(S(=O)(=O)N2CCN(c3ccc(Cl)c(Cl)c3)CC2)c2ccccc12,"inconclusive [falling, partial curve, poor fit]",–
Cc1cccc(NC(=O)c2cc(-c3ccc4c(c3)OCCO4)on2)c1,–,inactive: -15.9%
CC(=O)c1c(C)oc2ccc(N(C(=O)Oc3ccccc3)S(=O)(=O)c3ccccc3)cc12,–,inactive: 17.4%
CCOC(=O)C1=C(C)NC(=O)NC1c1cn(-c2ccccc2)nc1-c1ccc(OC(C)C)cc1 (stereo not drawn),"inconclusive [falling, single point]",–
COc1ccccc1N(CC(=O)Nc1ccc2c(c1)OCO2)S(=O)(=O)c1ccc(C)cc1,"inconclusive [falling, single point]",–
CCOC(=O)N1CCN(Cc2nc3cc(NC(=O)C(C)C)ccc3n2C(C)C)CC1,"inconclusive [falling, partial curve, poor fit]",–
CCc1ccc(NC(=O)CSc2ccc(-c3ccccn3)nn2)cc1,"inconclusive [falling, single point]",–
Cc1ccc(NC(=O)Cn2c(=O)c3ccccc3n3nncc23)cc1,"inconclusive [falling, partial curve, poor fit]",–
